# Out of some 310,000 compounds screened, about 2,200 (0.71%) showed an effect of 50% or more. The effect is printed as a negative number. The list shows a part of the results.
# Molecular target: human ether-à-go-go-related gene (hERG) potassium channel (human, UniProt Q12809)
# Experiment: primary screen, population patch clamp on CHO cells stably expressing hERG
# human ether-à-go-go-related gene (hERG) potassium channel, sequence (Q12809 whole entry, looked up): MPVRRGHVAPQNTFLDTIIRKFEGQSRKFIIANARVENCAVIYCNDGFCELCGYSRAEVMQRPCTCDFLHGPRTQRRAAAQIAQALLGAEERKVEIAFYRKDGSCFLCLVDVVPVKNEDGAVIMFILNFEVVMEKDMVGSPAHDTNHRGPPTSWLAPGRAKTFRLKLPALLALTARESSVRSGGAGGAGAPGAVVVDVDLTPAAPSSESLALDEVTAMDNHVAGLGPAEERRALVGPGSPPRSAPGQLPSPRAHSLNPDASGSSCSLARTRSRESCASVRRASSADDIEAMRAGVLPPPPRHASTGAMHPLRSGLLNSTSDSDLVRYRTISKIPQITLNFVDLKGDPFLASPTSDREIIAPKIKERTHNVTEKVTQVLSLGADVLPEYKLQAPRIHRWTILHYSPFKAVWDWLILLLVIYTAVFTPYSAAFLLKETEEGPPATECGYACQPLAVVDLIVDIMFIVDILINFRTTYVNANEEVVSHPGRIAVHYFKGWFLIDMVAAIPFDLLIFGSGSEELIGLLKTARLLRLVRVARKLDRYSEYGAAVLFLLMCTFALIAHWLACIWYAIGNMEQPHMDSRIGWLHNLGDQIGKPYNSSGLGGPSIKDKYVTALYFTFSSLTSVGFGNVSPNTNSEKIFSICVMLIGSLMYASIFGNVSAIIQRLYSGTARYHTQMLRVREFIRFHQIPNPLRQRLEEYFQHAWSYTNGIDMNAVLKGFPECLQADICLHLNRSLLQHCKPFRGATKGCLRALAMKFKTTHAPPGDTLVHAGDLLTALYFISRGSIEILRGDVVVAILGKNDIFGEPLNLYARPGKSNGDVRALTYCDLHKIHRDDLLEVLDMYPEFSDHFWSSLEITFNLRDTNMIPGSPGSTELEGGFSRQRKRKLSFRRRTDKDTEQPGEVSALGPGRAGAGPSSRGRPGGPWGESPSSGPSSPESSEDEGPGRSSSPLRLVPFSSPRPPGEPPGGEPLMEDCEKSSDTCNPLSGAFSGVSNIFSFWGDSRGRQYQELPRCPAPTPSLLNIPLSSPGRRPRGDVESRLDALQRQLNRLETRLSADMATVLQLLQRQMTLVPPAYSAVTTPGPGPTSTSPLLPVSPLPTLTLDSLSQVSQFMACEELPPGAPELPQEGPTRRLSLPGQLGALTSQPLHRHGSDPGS
row,SMILES,"hERG current change (%, negative = inhibition) at 1uM [%]"
1,N#Cc1ccc(NC(=S)Nc2ccccc2)cc1,5.21
2,Cc1ccc(CSCC(=O)Nc2ccc(F)cc2)cc1,8.03
3,CCOC(=O)/C=C/C(=O)Nc1ccc(S(=O)(=O)N2CCc3ccccc32)cc1,5.66
4,CCOC(=O)CCCNC(=O)c1cncc(O)c1.Cl,0.527
5,CCSc1nc2c(c(=O)[nH]c(=O)n2C)n1C/C=C(/C)Cl,-3.5
6,CC(NC(=O)CCn1ccc2cc(S(=O)(=O)N3CCCC3)ccc21)c1ccccc1 (centres unmarked),16.8
7,CCCCNC(=O)COc1ccccc1[N+](=O)[O-],-3.16
8,Cc1oc(-c2ccc(Cl)cc2)nc1CN1CCC(C(=O)NCc2cccs2)CC1,-30.2
9,COc1ccc(NC(=O)CSc2nc3n[nH]c(C)c3c(=N)n2-c2ccc(Cl)c(C)c2)cc1OC,14.9
10,COc1ccc(C2=NO[C@@H]3C(=O)N(Cc4ccccc4)C(=O)[C@H]23)c(OC)c1,15
11,COC(=O)C1=CN(c2cccc(Cl)c2)C=C(C(=O)OC)C1c1cccc(OC)c1,17.1
12,Cc1ccc(-n2c(SCC(=O)O)nc3sc4c(c3c2=O)CCCC4)cc1,-2.52
13,O=C(CSc1nc2[nH]ncc2c(=O)[nH]1)Nc1ccccc1C(F)(F)F,14.6
14,Cc1cccc(C)c1OCC(=O)N(Cc1ccc(Cl)cc1)C1CCS(=O)(=O)C1 (centres unmarked),9.13
15,O=C(O)CCCCCn1c(O)c(C=C2N=c3ccccc3=N2)sc1=S,10.5
16,Cc1ccc(Oc2cc([N+](=O)[O-])cc3c2C(=O)Nc2ccccc2O3)cc1,8.68
17,O=C(CN1CCOc2ccccc21)N1CCCC1,9.56
18,CC(=O)Nc1ccc(S(=O)(=O)NC(C)(C#N)C2CC2)cc1 (centres unmarked),12.5
19,COc1cccc(CNC(=O)C(=O)NCC2CCCN2S(=O)(=O)c2cc(C)ccc2C)c1 (centres unmarked),-3.27
20,CCOc1ccc(NC(=O)c2ccc(N3CC4CC(C3)c3cccc(=O)n3C4)c(NC(=O)c3ccncc3)c2)cc1 (centres unmarked),18.5
21,O=C(NCc1cccs1)c1cnc2sccn2c1=O,-2.69
22,COc1ccc(C(CNC(=O)c2ccc3c(c2)CCC3)N(C)C)cc1 (centres unmarked),4.94

row,SMILES,"hERG current change (%, negative = inhibition) at 1uM [%]"
1,CCCCNC(=O)CN1CCN(Cc2ccc3cc(OC)ccc3c2)CC1.O=C(O)C(=O)O,-26.3
2,CC1CCN(C(=O)CSc2ccc(-c3ccccc3)nn2)CC1,-14.1
3,Cc1ccc(NC(=O)CN(C)CC(=O)Nc2ccc(N3CCOCC3)cc2)cc1F.O=C(O)C(=O)O,-5.19
4,Cc1ccc(NC(=O)CSc2nnc(Cn3cnc4ccccc43)o2)c(C)c1,20.5
5,Cc1cc(C(=O)NCc2ccc(S(N)(=O)=O)cc2)cs1,-6.92
6,CCOC(=O)c1c(NC(=O)COC(=O)C2CC2C)sc(C)c1C (centres unmarked),12.4
7,C=CCc1cccc(/C=N/NC(=O)C(C)Nc2ccc(C)cc2)c1O (centres unmarked),14.3
8,COc1ccc(Cl)cc1NC(=O)COC(=O)CCCC1=NS(=O)(=O)c2ccccc2N1,11.6
9,O=C1/C(=C\c2cccnc2)CCc2ccccc21,-2.68
10,CCN(CC(=O)NCc1ccc(F)cc1)C(=O)CN1CCN(c2ccc(OC)cc2)CC1.O=C(O)C(=O)O,-21.1
11,Cc1cc(C)n(/C(=C/N(C)C)C(=O)c2ccccc2)n1,4.36
12,Cc1ccc(-c2nc3cnccn3c2Nc2c(C)cccc2C)o1,1.94
13,Cc1ccc(C)c(COC(=O)CCN=C2NS(=O)(=O)c3ccccc32)c1,14.1
14,O=C(COC(=O)/C=C/c1cccc(Cl)c1)Nc1ccccc1-c1ccccc1,10.5
15,Cc1ccc2[nH]c(=O)c(CN(Cc3ccccc3)C(=S)NCCCN(C)C)cc2c1,4.21
16,CC(C)(C)OC(=O)NCCCC1=CC2=CC(=O)C(C)(OC(=O)c3ccco3)C(=O)C2=CO1 (centres unmarked),-3.19
17,COCCSc1nnc(NC(=O)c2ccco2)s1,18.5
18,Cc1ccc(S(=O)(=O)N(C)c2ccc(OCC(=O)OCC(=O)N(CC#N)c3ccccc3)cc2)cc1,-2.38
19,COc1ccc(CCn2nnnc2C(c2ccccc2)N2CCN(C)CC2)cc1OC.Cl (centres unmarked),10.8
20,O=C(NCCCNCCCNC(=O)c1ccccn1)c1ccccn1,-10
21,Cc1cc(/C=C(\C#N)C(N)=O)c(C)n1-c1ccc(N2CCOCC2)c([N+](=O)[O-])c1,1.75
22,COCCCN(C(=S)Nc1c(C)cc(C)cc1C)C(C)c1ccncc1 (centres unmarked),7.15

row,SMILES,"hERG current change (%, negative = inhibition) at 1uM [%]"
1,COC(=O)c1[nH]c2cc(OC)ccc2c1NC(=O)CCN1CCN(c2cccc(C)c2C)CC1,2.69
2,Cc1ccc(S(=O)(=O)N2CCCCC2)cc1C(=O)OCC(=O)NC(=O)NC12CC3CC(CC(C3)C1)C2,16.6
3,Cc1cc(Br)ccc1NC(=O)c1sc2ncn(CC(=O)N3CCN(c4ccccn4)CC3)c(=O)c2c1C,12.3
4,Cc1cc(OCC(=O)NCc2cccnc2)c2c3c(c(=O)oc2c1)CCCC3,-22.9
5,COc1ccc(C)cc1NC(=O)c1ccc(-c2ccc(C(C)=O)cc2)o1,8.64
6,O=C(Cc1c(Cl)cccc1Cl)OCc1ccccn1,2.17
7,Cc1ccc(C(=O)NCC2CCCO2)cc1S(=O)(=O)N1CCCCC1 (centres unmarked),-0.59
8,COc1ccc(S(=O)(=O)Nc2cc(SCC(=O)O)c(O)c3ccccc23)cc1,14.4
9,CN(C)c1ccc(P(=O)(OCc2ccccc2)C(O)c2ccncc2)cc1 (centres unmarked),-5.59
10,O=c1c2c([nH]c3ccccc13)CCC2,14
11,COc1ccc(C(=O)NCCn2cc(SCC(=O)Nc3cc(C)on3)c3ccccc32)cc1OC,9.13
12,COc1cccc(C2(O)CCN(CC(=O)NCC3CC3)CC2)c1,2.99
13,O=c1c(=O)n2c(nn1Cc1ccc(F)cc1)sc1ccccc12,9.13
14,COc1cccc(OC)c1OCCCNC1CCCC1.O=C(O)C(=O)O,2.94
15,O=C(CC(c1ccco1)S(=O)(=O)c1ccccc1)c1ccc(F)cc1 (centres unmarked),1.73
16,CCc1[nH]c(C(=O)O)c(C)c1C(=O)OC,10.4
17,O=C(CSc1nc2ccc(Cl)cc2[nH]1)Nc1ccc2[nH]c(=O)[nH]c2c1,14.6
18,CCOc1ncccc1C(=O)NC(C)CCc1ccccc1 (centres unmarked),10.1
19,O=C(COc1ccc([N+](=O)[O-])cc1)NCc1ccccc1,7.63
20,CCCCC(=O)NC1(C(F)(F)F)C(=O)Nc2c1c(=O)n(C)c(=O)n2C (centres unmarked),7.12
21,NC(=O)CC(NC(=O)Cc1ccc(Br)cc1)c1ccc(NCC2CC2)c([N+](=O)[O-])c1 (centres unmarked),3.32
22,C=CCSc1nc2ccsc2c(=O)n1-c1cccnc1,3.11

row,SMILES,"hERG current change (%, negative = inhibition) at 1uM [%]"
1,O=C1CC(c2cccs2)c2ccc3ccccc3c2N1 (centres unmarked),13.8
2,Cc1ccc(N2CCN(C3=NC(=O)/C(=C\c4cccs4)S3)CC2)cc1,-12.5
3,CC[C@H](C)/C=C(C)/C=C/C1=CC2=C(Cl)C(=O)[C@@](C)(OC(C)=O)C(=O)C2=CO1,16.3
4,O=C1NCCN(Cc2c(F)cccc2Cl)C1CC(=O)N1CCCCO1 (centres unmarked),17.2
5,O=C(c1ccc(NS(=O)(=O)c2ccccc2)cc1)N1CCCCCC1,3.03
6,COc1ccc(NC(=O)CN(C)C(=O)CN2C(=O)NC3(CCCCC3)C2=O)cc1,12.2
7,COc1cccc(N2CCN(C(=S)Nc3cccc(C)c3)CC2)c1,7.56
8,CC1(C)Cc2c(cnn2-c2cccc(F)c2)C(NC(=O)c2cc[n+]([O-])cc2)C1 (centres unmarked),-4.34
9,N=C(N)N1CCc2ccccc2C1.O=S(=O)(O)O,6.14
10,COc1ccc(OC)c(S(=O)(=O)N2CCC3(CC2)CC(=O)c2ccccc2O3)c1,3.18
11,O=C(CNC(=O)c1ccc(Cl)cc1)OCC(=O)c1ccccc1,-0.984
12,CC(=O)c1cccc(NC(=O)CN(C)S(=O)(=O)c2ccccc2)c1,3.96
13,COC(=O)c1ccsc1NC(=O)CN1C(=O)CCC1=O,12.5
14,O=C(O)CC(C(=O)Nc1ccc(Cl)cc1Cl)C1CCCO1 (centres unmarked),3.96
15,C/C=C/c1ccc(OCCOc2ccc(C=O)cc2OC)c(OC)c1,12
16,Cc1ccc(-n2nnnc2SC(C(=O)c2c[nH]c3ccccc23)c2ccccc2)cc1 (centres unmarked),12.2
17,CSc1ccc(CN(C)C(=O)CNC(=O)CNS(=O)(=O)c2ccc(C)c(C)c2)cc1,9.66
18,Cc1ccccc1Nc1cccc2nonc12,12.9
19,Cc1cc(CN(C)C(=O)c2ccc3nc(Cc4ccccc4F)oc3c2)on1,11.5
20,Cc1c(NC(=O)CN2C(=O)c3ccc([N+](=O)[O-])cc3C2=O)c(=O)n(-c2ccccc2)n1C,5.36
